Assay results as given in paper PMC6983858.
Results are given in words; binding and its absence hold for the method and conditions named. For some assays here: Binding seen in cells or lysates may run through a third protein. Some binding calls cover weakened binding; strength is not graded here.

Experiments:
[1] = target: FLAG-tagged neurofibromin ABC domain expressed in NF1-null HEK293T cells (human) (UniProt P21359); experiment: co-IP; HA- and FLAG-tagged NF1 domains co-expressed in NF1-null HEK293T cells; anti-FLAG M2 affinity gel, blots with anti-HA and anti-FLAG
[2] = target: HA- or FLAG-tagged neurofibromin DEF domain expressed in NF1-null HEK293 cells (human) (UniProt P21359); experiment: as above
[3] = target: HA- or FLAG-tagged neurofibromin ABCD domain expressed in NF1-null HEK293T cells (human) (UniProt P21359); experiment: as above
[4] = target: HA- or FLAG-tagged neurofibromin CDEF domain expressed in NF1-null HEK293 cells (human) (UniProt P21359); experiment: as above
[5] = target: full-length neurofibromin, FLAG- or V5-tagged, expressed in HEK293T cells (human) (UniProt P21359); experiment: co-IP; FLAG- and V5-tagged full-length NF1 co-transfected into HEK293T cells; anti-FLAG M2 affinity gel, blots with anti-FLAG and anti-V5
[6] = target: neurofibromin ABC fragment (2–1540) (human) (UniProt P21359); experiment: negative-stain EM; proteins diluted to 0.01 mg/ml in 20 mM Tris-Cl pH 8.0, 300 mM NaCl, 5 mM TCEP, stained with uranyl formate; 2D class averages and 3D reconstruction; both purified
[7] = target: neurofibromin ABC fragment (2–1540) (human) (UniProt P21359); experiment: AUC; sedimentation velocity of ABC or DEF alone at several concentrations, 50,000 rpm, 20 °C, 300 mM NaCl, 20 mM Tris-HCl pH 8.5, 5 mM TCEP; both purified
[8] = target: neurofibromin ABC fragment (2–1540) (human) (UniProt P21359); experiment: SEC-MALS; single purified proteins; Superose-6 Increase or Superdex S-200 10/300 GL, Wyatt Heleos and Optilab T-Rex; BSA as standard; both purified
[9] = target: T1, neurofibromin EF fragment (1821–2818) (human) (UniProt P21359); experiment: SEC; reconstitution from purified ABCD and EF, data not shown; both purified
T1 sequence: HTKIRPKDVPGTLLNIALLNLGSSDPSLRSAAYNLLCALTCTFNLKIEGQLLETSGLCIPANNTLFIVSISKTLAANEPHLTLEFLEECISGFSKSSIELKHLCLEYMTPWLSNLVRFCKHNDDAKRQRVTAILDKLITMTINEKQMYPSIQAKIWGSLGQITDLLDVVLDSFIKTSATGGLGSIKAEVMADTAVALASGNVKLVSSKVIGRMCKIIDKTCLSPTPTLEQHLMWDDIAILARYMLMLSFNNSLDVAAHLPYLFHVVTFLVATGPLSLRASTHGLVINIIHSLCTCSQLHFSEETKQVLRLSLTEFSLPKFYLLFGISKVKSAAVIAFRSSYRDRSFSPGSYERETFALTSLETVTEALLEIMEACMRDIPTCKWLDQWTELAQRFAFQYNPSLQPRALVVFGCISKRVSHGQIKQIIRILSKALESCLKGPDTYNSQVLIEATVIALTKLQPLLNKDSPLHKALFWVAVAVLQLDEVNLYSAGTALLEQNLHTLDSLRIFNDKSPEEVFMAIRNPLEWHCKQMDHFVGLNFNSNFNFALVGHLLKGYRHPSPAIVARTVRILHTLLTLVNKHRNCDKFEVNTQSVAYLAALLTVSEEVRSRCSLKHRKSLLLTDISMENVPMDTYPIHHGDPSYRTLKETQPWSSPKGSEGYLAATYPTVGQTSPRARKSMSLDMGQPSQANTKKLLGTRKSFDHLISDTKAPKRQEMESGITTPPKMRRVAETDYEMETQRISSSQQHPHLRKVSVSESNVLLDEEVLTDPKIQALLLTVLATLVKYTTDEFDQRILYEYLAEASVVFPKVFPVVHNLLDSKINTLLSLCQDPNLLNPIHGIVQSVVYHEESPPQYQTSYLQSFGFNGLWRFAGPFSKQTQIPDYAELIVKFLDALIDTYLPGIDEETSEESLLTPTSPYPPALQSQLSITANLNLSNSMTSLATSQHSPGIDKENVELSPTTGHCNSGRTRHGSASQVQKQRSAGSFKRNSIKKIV

[10] = target: neurofibromin DEF fragment (1541–2818) (human) (UniProt P21359); experiment: AUC; sedimentation velocity of ABC or DEF alone at several concentrations, 50,000 rpm, 20 °C, 300 mM NaCl, 20 mM Tris-HCl pH 8.5, 5 mM TCEP; both purified
[11] = target: neurofibromin DEF fragment (1541–2818) (human) (UniProt P21359); experiment: SEC-MALS; single purified proteins; Superose-6 Increase or Superdex S-200 10/300 GL, Wyatt Heleos and Optilab T-Rex; BSA as standard; both purified

HA- or FLAG-tagged neurofibromin ABCD domain expressed in NF1-null HEK293T cells (from UniProt P21359-2 2-1820) (domain or fragment)
binding [1]: no binding

HA- or FLAG-tagged neurofibromin CDEF domain expressed in NF1-null HEK293 cells (from UniProt P21359-2 861-2818) (domain or fragment)
binding [2]: binds
binding [3]: binds
binding [1]: binds
binding [4]: binds

HA- or FLAG-tagged neurofibromin DEF domain expressed in NF1-null HEK293 cells (from UniProt P21359-2 1541-2818) (domain or fragment)
binding [3]: binds
binding [1]: binds

full-length neurofibromin, FLAG- or V5-tagged, expressed in HEK293T cells (from UniProt P21359-2 1-2818)
binding [5]: binds

neurofibromin ABC fragment (2–1540) (from UniProt P21359-2 2-1540) (domain or fragment)
binding [6]: no binding (tested: 0.01 mg/ml)
binding [7]: no binding (tested: 1.1 μM, 2.2 μM and 4.5 μM)
binding [8]: no binding

neurofibromin ABCD fragment (2–1820) (from UniProt P21359-2 2-1820) (domain or fragment)
binding [9]: binds

neurofibromin DEF fragment (1541–2818) (from UniProt P21359-2 1541-2818) (domain or fragment)
binding [10]: binds weakly
binding [11]: binds weakly
